Toxic doses and inconclusive results are not listed. Not every entry of the source has a single result; some have several. The list is limited to them. An entry can have further records. Values given together differ, and nothing given here explains why; some may be repeats, others may stem from another dose, organism or construct than stated.

In PubChem BioAssay AID328 (DTP/NCI, 2004) one finds T/C data, which are given here for eight compounds.

The test system of the assay is BDF1 mice, P388 leukemia ip, median survival T/C. The assay can be described thus: NCI In Vivo Anticancer Drug Screen. Data for tumor model P388 Leukemia (intraperitoneal) in B6D2F1 (BDF1) mice. To be noted: endpoint: median survival time, higher = longer survival. The method, boiled down:
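Each value expresses how treatment altered survival: treated-mouse outcome over vehicle-mouse outcome, both groups bearing the transplanted tumour.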

The mark [1] stands for this setting: dose: 0.5 mg/kg/injection, schedule: Q01DX009 (ip), vehicle: water.

With `CO[C@H](C(=O)[C@@H](O)[C@@H](C)O)[C@@H]1Cc2cc3cc(OC4CC(OC5CC(O)C(O)C(C)O5)C(O)C(C)O4)c(C)c(O)c3c(O)c2C(=O)[C@H]1OC1CC(OC2CC(OC3CC(C)(O)C(O)C(C)O3)C(O)C(C)O2)C(O)C(C)O1` (stereo partly specified), the T/C is, setting by setting: (dose: 0.25 mg/kg/injection, schedule: Q01DX009 (ip), vehicle: saline) 87 % of control, 151 % of control, 160 % of control; (dose: 0.5 mg/kg/injection, schedule: Q01DX009 (ip), vehicle: saline) 95 % of control, 192 % of control, 195 % of control.

On to `COc1cccc2c1C(=O)c1c(O)c3c(c(O)c1C2=O)C[C@@](O)(/C(C)=N/NC(=O)c1ccc(O)cc1)C[C@@H]3OC1CC(N)C(O)C(C)O1` (stereo partly specified), for which the T/C under setting [1] was 120 % of control and 193 % of control.

Consider `CC[C@H]1CN2CCc3cc(OC)c(OC)cc3[C@@H]2C[C@@H]1C[C@H]1NCCc2cc(O)c(OC)cc21`, for which, under “dose: 1.0 mg/kg/injection, schedule: Q01DX010 (ip), vehicle: saline”, the T/C was 100 % of control and 154 % of control.

In the case of `CCCCCCCC(=O)OCC(=O)[C@]1(O)Cc2c(O)c3c(c(O)c2[C@@H](OC2CC(N)C(O)C(C)O2)C1)C(=O)c1c(OC)cccc1C3=O` (stereo partly specified), the T/C (dose: 8.0 mg/kg/injection, schedule: Q04DX003 (ip), vehicle: water) is 103 % of control and 173 % of control.

With `COc1ccc(C(=O)N/N=C(\C)[C@]2(O)Cc3c(O)c4c(c(O)c3[C@@H](OC3CC(N)C(O)C(C)O3)C2)C(=O)c2c(OC)cccc2C4=O)cc1` (stereo partly specified), the T/C under setting [1] was 104 % of control and 183 % of control.

For the compound `CCC1CC2CC(c3cc4c(cc3OC)N(C)C3C(O)(C(=O)OC)C(OC(C)=O)C5(CC)C=CCN6CCC43C65)c3[nH]c4ccccc4c3CCN(C1)C2` (stereo unspecified), the T/C (dose: 2.0 mg/kg/injection, schedule: Q04DX003 (ip), vehicle: water) was 100 % of control and 177 % of control.

Turning to `C1CN(P2(N3CC3)=NP(N3CC3)(N3CC3)=NP(N3CC3)(N3CC3)=N2)CCO1` (stereo unspecified), the T/C (dose: 50.0 mg/kg/injection, schedule: Q01DX009 (ip), vehicle: saline) was 91 % of control and 156 % of control.

For the compound `COc1cccc2c1C(=O)c1c(O)c3c(c(O)c1C2=O)C[C@@](O)(C(=O)O)C[C@@H]3OC1CC(N)C(O)C(C)O1` (stereo partly specified), the T/C was 100 % of control and 151 % of control (dose: 12.5 mg/kg/injection, schedule: Q01DX009 (ip), vehicle: water); 107 % of control and 163 % of control (dose: 25.0 mg/kg/injection, schedule: Q01DX009 (ip), vehicle: water); 102 % of control and 151 % of control (dose: 50.0 mg/kg/injection, schedule: Q01DX009 (ip), vehicle: water).
